Data on 26 compounds can be found in PubChem BioAssay AID1159614 (National Center for Advancing Translational Sciences (NCATS), 2016).

Structures are written as SMILES. About 65 (0.1%) of roughly 45,000 compounds were called active. Calls come from the whole dose curve; as a rule, active = well fitted activation curve with a large enough effect; inconclusive = small, poorly fitted or top-dose-only effect; inactive = no such curve, though single readings can be large or run the other way. Some of the results follow.

In the assay the target is Galactocerebrosidase (Homo sapiens) (UniProt P54803). Nature of the assay: A Novel Cell-Based Assay to Identify Small Molecules for B -Galactocerebrosidase. Note: 0% is about no effect; nearly all actives have a fitted effect of over 65% in size. The settings on record: 145M-Twi-hGALC-G270D cells (Twitcher mouse brain line with human GALC G270D), HMU-beta-Gal fluorescence, 48 h; series mostly up to 57.5 µM; activation: at the top concentration. In outline: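 Fluorogenic HMU-b-Gal hydrolysis (0.1 mM final, pH 5.2 citrate-phosphate with 1 mg/mL sodium taurocholate; carbonate stop buffer) measures mutant GALC activity after compound treatment of live 145M-Twi Twitcher brain cells stably carrying human GALC-G270D, with wild-type GALC line alongside; activation sought.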
Chain of UniProt P54803 (P54803 whole entry, looked up): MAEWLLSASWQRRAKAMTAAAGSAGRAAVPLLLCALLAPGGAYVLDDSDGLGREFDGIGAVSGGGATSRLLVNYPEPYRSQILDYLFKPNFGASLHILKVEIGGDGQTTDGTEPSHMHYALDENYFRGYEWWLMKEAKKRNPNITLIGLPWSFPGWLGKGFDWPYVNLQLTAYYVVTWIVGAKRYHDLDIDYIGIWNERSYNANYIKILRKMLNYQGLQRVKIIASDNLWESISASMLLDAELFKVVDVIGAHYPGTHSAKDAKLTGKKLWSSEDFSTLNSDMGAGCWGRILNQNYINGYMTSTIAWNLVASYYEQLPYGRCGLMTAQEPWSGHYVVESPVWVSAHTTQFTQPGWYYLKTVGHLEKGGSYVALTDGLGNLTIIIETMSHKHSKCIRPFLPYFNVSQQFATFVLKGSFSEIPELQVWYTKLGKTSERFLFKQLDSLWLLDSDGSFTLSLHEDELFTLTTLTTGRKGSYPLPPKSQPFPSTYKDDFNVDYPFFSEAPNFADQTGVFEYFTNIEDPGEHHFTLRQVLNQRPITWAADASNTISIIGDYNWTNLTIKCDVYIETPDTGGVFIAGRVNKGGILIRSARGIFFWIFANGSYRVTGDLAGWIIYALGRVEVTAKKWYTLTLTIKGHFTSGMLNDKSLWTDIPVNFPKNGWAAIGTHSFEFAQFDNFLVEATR
As to `COc1ccc(N2CCN(C(=O)C3CCN(S(=O)(=O)c4cccc5nonc45)CC3)CC2)cc1`, the “activation” value is inactive: -2.55%. On to `Cc1cc(C)cc(NC(=O)c2ccc3oc(=O)c(S(=O)(=O)c4ccc(F)cc4)cc3c2)c1`, for which the “activation” value is inactive: -20.1%.

Consider `CCOc1ccc(CNCc2c(C(=O)O)c(C)n(Cc3ccc(C)cc3)c2C)cc1`, for which the “activation” value was inactive: -11.1%. On to `Cc1nnc(N2CCCC(C(=O)NCCN(C)C)C2)c2nn(-c3ccccc3)c(C)c12` (stereo unspecified), for which the “activation” value was inactive: -8.8%. Consider `CCOc1ccccc1OCCCCn1c(-c2ccc(Cl)cc2)nc2ccccc2c1=O`, for which the “activation” value was inactive: -7.98%. `COc1ccc(C)cc1NC(=O)Nc1cc(C(=O)NCc2ccc(C)cc2)ccc1N1CCCC1`: the “activation” value was inactive: -30.4%. For `Cc1sc(-c2cc3ccccc3oc2=O)nc1-c1ccc(Cl)c(Cl)c1` the value was inactive: -18.5%. In the case of `COc1ccc(-c2nc3sc(CCNC(=O)Cc4ccc(F)cc4)c(C)n3n2)cc1`, the “activation” value is inactive: 2.28%. As to `Cc1ccc(-n2ncc3c(N(C)C)ncnc32)cc1Cl`, the “activation” value was inactive: -19.7%. For `CCC(Sc1nc(-c2ccccc2)[nH]c1S(=O)(=O)c1ccc(C)cc1)C(=O)O` (stereo unspecified) the value was inactive: -6.58%; for `Cc1cc(=O)n(Cc2ccc(F)cc2Cl)c2c1c(C)nn2C`, inactive: -7.54%; for `CC(C)c1ccc(-c2noc(SCC(=O)N3CCCCC3C)n2)cc1` (stereo unspecified), inactive: -11%. On to `O=C(NCCCN1CCN(c2ccc(F)cc2)CC1)c1cc2c(Cl)nc3ccccc3c2s1`, for which the “activation” value is inactive: -0.648%.

As to `Cc1cccc(-c2nc(CCNC(=O)c3ccc(Br)o3)cs2)c1`, the “activation” value was inactive: -8.03%.

As for `Cc1cc(C)cc(OC(=O)c2cc(-c3ccc(Cl)cc3)on2)c1`, the “activation” value was inactive: -9.69%. Take `CCCCCN1C(C(=O)c2ccccc2)=C(NC(=O)c2ccc(C)cc2)c2ccccc2S1(=O)=O`: the “activation” value was inactive: -22.2%. Turning to `CC1CCc2onc(C(=O)N3CCN(c4ccc(F)cc4)CC3)c2C1` (stereo unspecified), the “activation” value is inactive: -10.2%.

`CCOc1ccc(NC(=O)c2c(NCc3cccnc3)sc3c2CCC(C)C3)cc1` (stereo unspecified): the “activation” value is inactive: -9.05%. On to `CCN1CCN(C(=O)c2cnn(-c3ccc(F)cc3F)c2C2CCN(C(=O)OC(C)(C)C)CC2)CC1`, for which the “activation” value is inactive: -0.916%.

On to `CC(=O)c1sc(NC(=O)c2c(-c3ccccc3)c(-c3ccccc3)nn(C)c2=O)nc1C`, for which the “activation” value was inactive: -0.472%.

Turning to `CCN(CC)C(=O)Cn1c(=O)n(-c2ccc(C)c(C)c2)c(=O)c2c(C)c(C(=O)N(CC)CC)sc21`, the “activation” value is inactive: 1.43%.

In the case of `COc1ccc(OC)c(NC(=O)c2cnc(Nc3ccc(C)c(Cl)c3)c3ccccc23)c1`, the “activation” value is inactive: -7.47%. For `CC(=O)c1ccc(O)c(C(N)=O)c1` the value was inactive: -4.66%; for `CC1=C(C(=O)Nc2ccc(Cl)cc2)C(c2cccs2)n2nc(SCc3cccc(C)c3)nc2N1` (stereo unspecified), inactive: -4.72%; for `O=C(CSc1nc2cc3ccccc3cc2[nH]1)Nc1ccc(F)cc1`, inactive: -19.2%. Regarding `CC(C)(C)OC(=O)N1CCC(c2c(C(=O)N3CCN(c4ccccc4F)CC3)cnn2-c2ccccc2Cl)CC1`, the “activation” value was inactive: -6.34%.
